About 14,000 (4.5%) of roughly 310,000 compounds showed an effect of 50% or more. Effects have a minus sign here. The list shows a part of the results.
biological target: human ether-à-go-go-related gene (hERG) potassium channel (human, UniProt Q12809); assay: primary screen, population patch clamp on CHO cells stably expressing hERG
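Note: peak tail current of the secondary pulse compared with the same well before compound.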

Chain of human ether-à-go-go-related gene (hERG) potassium channel (Q12809 whole entry, looked up): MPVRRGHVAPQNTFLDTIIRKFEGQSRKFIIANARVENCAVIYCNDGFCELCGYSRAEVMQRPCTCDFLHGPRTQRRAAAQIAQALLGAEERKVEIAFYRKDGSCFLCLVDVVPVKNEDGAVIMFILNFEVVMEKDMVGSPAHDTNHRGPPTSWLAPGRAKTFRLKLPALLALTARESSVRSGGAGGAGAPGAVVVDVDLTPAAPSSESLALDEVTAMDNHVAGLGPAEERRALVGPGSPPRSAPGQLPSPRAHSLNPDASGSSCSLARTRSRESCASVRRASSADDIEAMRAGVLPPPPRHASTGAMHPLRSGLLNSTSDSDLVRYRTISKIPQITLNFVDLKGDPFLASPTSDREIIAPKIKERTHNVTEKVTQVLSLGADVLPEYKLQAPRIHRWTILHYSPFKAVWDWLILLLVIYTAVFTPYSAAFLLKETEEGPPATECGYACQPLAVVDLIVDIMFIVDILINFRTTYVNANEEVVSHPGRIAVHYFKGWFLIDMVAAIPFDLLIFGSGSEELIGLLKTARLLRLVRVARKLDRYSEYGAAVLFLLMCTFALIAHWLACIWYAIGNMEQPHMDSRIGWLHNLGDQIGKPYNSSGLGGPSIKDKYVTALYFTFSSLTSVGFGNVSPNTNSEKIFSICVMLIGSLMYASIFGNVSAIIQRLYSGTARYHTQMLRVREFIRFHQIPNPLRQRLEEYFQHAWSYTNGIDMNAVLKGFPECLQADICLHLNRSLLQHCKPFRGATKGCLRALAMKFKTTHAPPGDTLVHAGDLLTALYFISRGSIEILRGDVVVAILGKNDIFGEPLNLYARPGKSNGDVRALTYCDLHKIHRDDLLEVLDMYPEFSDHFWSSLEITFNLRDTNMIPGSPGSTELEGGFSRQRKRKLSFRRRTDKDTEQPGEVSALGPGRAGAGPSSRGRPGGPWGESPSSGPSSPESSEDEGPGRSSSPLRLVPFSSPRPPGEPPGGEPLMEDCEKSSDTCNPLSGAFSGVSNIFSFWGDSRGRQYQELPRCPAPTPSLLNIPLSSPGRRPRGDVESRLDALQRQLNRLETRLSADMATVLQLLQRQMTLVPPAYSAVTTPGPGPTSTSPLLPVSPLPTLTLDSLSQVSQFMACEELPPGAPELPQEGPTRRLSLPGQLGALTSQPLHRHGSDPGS

| SMILES | hERG current change (%, negative = inhibition) at 10uM [%] |
| --- | --- |
| O=C(COc1cccnc1[N+](=O)[O-])Nc1cc(S(=O)(=O)N2CCCCC2)ccc1Cl | 4.68 |
| CC(C)(C)OC(=O)N1CCC(CC2CC(c3ccc(Cl)cc3)=NO2)(C(=O)NCC2CCCCC2)CC1 (stereo not drawn) | -19.5 |
| CCCCn1c(N)c(N(CCC(C)C)C(=O)c2ccc(N3CCCC3=O)cc2)c(=O)[nH]c1=O | 0.521 |
| Cc1nonc1NC(=O)CSc1nc2ccccc2o1 | -36.8 |
| CCCc1cc(=O)[nH]c(SCCOC(=O)c2ccccc2)n1 | -11.4 |
| COC(=O)c1ccc(NCC(=O)Nc2cc(C)cc(C)c2)cc1 | 0.766 |
| COc1ccc(C(=O)C2CCN(C(=O)c3ccc(C)cc3)CC2)cc1 | -66.3 |
| COC(=O)c1scc(C)c1NC(=O)CC1NCCNC1=O (stereo not drawn) | 11.9 |
| CCCN(CCC)C(=O)c1cc(-c2ccc3c(c2)OCO3)nc2ccccc12 | -44.1 |
| COc1ccc(C(=O)N2CCN(c3nc4ccccc4o3)CC2)cc1OC | -40.7 |
| COc1ccc(Br)cc1C1CC(=O)N2CN(C)CSC2=C1C#N (stereo not drawn) | 12.2 |
| O=C1CCCC(=O)C1Sc1ccc(Cl)cc1 | 11.2 |
| Cc1c(NC(=O)C2CC(c3c(F)cccc3Cl)=NO2)c(=O)n(-c2ccccc2)n1C (stereo not drawn) | 14.7 |
| NC(=O)c1ccccc1NC(=O)Cc1cccs1 | -0.237 |
| Cc1cc(NC(=O)c2ccc(C)s2)n(-c2nc3ccccc3[nH]2)n1 | 10.3 |
| O=C(c1cc2ccccc2cc1O)N1CCN(c2ccccn2)CC1 | -4.26 |
| Cc1cccc(C(=O)N(Cc2ccco2)c2c(N)n(Cc3ccccc3)c(=O)[nH]c2=O)c1 | -1.64 |
| Cc1cc(OCC(=O)NNC(=O)c2ccncc2)ccc1C(C)C | -12.2 |
| Cc1cc(C)n(-c2c(C)[nH]c3ccccc23)n1 | 7.34 |

| SMILES | hERG current change (%, negative = inhibition) at 10uM [%] |
| --- | --- |
| COC(=O)CCC(=O)OC1(C)C(=O)C2=CN(CCc3c[nH]c4ccccc34)C(c3ccc(OC)cc3)=CC2=C(Br)C1=O (stereo not drawn) | -1.22 |
| CC[C@H](C)Cc1cn([C@@H](CCCN=C(NC(=O)OC(C)(C)C)NC(=O)OC(C)(C)C)C(=O)NCCCCCCCCCCC(=O)N2CCN(C(=O)OC(C)(C)C)CC2)nn1 | 4.2 |
| O=C(Nc1nc(-c2ccccn2)cs1)C1COc2ccccc2O1 (stereo not drawn) | -22.4 |
| COc1ccc(CNS(=O)(=O)c2ccc(S(=O)(=O)N3CCCCC3)cc2)cc1 | 7.34 |
| COc1ccc(OC)c(/C=N/NC2=NS(=O)(=O)c3ccccc32)c1 | 1.79 |
| OCC[C@@H]1C[C@@H](O)[C@H](O)[C@]2(CCc3ccccc3O2)O1 | 8.06 |
| NC(=O)C1(N2CCCCC2)CCN(S(=O)(=O)c2cc(Cl)sc2Cl)CC1 | -28.8 |
| O=C(O)CSCC(=O)N1CCCCC1 | 26.3 |
| c1ccc(-c2nc(Sc3ncnc4c3cnn4-c3ccccc3)n[nH]2)cc1 | 3.89 |
| COc1ccc(CNC(=O)c2cnc(C)cn2)c(OC)c1 | -11 |
| Cc1ccc(N2C(=O)C(CN3CCOCC3)C2c2ccccc2)cc1 (stereo not drawn) | -26.5 |
| CCOc1ccc(NC(=O)CN(C)Cc2cc(=O)n3c(-c4ccccc4)csc3n2)cc1OCC | 12.4 |
| O=C(CSc1n[nH]c(=O)n1Cc1ccccc1)Nc1ccc(F)c(F)c1F | 10.1 |
| Cc1cc(N2CCOCC2)ccc1/C=C1\SC(=O)N(C(C)C)C1=O | -6.26 |
| CC1=C(C(=O)Nc2ccccc2)S(=O)(=O)CCO1 | 12.2 |
| COc1ccc(NC(=O)NS(=O)(=O)c2ccc(C)cc2)cn1 | 11.9 |
| Cc1nn(C)c(C)c1NC(=O)Nc1cccc(C(F)(F)F)c1 | 1.34 |
| COC(=O)CCCNc1ncccc1[N+](=O)[O-] | 21.2 |
| COc1ccc(OC)c(NC(=O)CCCC(=O)NC2CCCCC2)c1 | 20.4 |

| SMILES | hERG current change (%, negative = inhibition) at 10uM [%] |
| --- | --- |
| O=C1C=C(NC2CCCCC2)CCC1 | 8.06 |
| NC(=O)NC(Cc1ccccc1)C(=O)Nc1ccc(S(N)(=O)=O)cc1 (stereo not drawn) | -2.84 |
| CCN(CC)C(=O)CSc1nnc(CNc2ccc(F)cc2)n1Cc1ccco1 | -38.2 |
| Cc1c(CCO)c(=O)n(-c2ccccc2)n1S(=O)(=O)c1ccc(F)cc1 | 1.37 |
| Nc1nnc(SCC(=O)NC2CCCCCC2)s1 | 9.18 |
| COc1ccc(OCC(O)CN2CCN(c3ccccc3)CC2)cc1.Cl (stereo not drawn) | -39.2 |
| COc1ccc(-c2cc(C)no2)cc1S(=O)(=O)N(C)c1cccc(C)c1 | -82.5 |
| Oc1cccc(Nc2nc(O)c(/C=C3\C=Nc4ccccc43)s2)c1 | -7.99 |
| CCC(C(=O)Nc1ccc(C(C)C)cc1)c1ccccc1 (stereo not drawn) | 11.8 |
| CCCCn1c(N)c(N(CCC(C)C)C(=O)C2CCCO2)c(=O)[nH]c1=O (stereo not drawn) | 11.4 |
| O=C(O)CC1(CC(=O)N2CCC(C(=O)O)CC2)CCCC1 | 22.4 |
| O=C(COC(=O)c1cc2ccccc2o1)c1ccccc1 | 4.14 |
| Fc1ccccc1C1c2[nH]c3ccccc3c2CCN1Cc1cccn1-c1ncccn1 (stereo not drawn) | -50.6 |
| COc1ccc(-n2c(C)cc(C(=O)CCl)c2C)cc1 | -9.2 |
| Cc1c(C(=O)N2CCCCC2)c(S(=O)(=O)Nc2ccc(F)cc2F)c(C)n1C | 21.9 |
| Fc1ccc(-c2nn3c(C4COc5ccccc5O4)nnc3s2)cc1 (stereo not drawn) | 6.78 |
| COc1c(Cl)ccc(Cl)c1C(=O)NCc1ccco1 | 3.52 |
| CCOc1ccc(NC(=S)NNC(=O)c2ccc(Br)cc2)cc1 | 14.2 |
| CCCCn1c(N)c(N(C)C(=O)c2ccc(OCC3CCCO3)cc2)c(=O)[nH]c1=O (stereo not drawn) | 5.48 |

Source: paper PMC4336329 (PLoS ONE, 2015)
